# From the supplement of paper PMC4604168 (melanoma cell lines)
# This is one part of the list. Most values come without repeats; read them as rough.
# Key:
# Experiment in all cases: cell count relative to DMSO control; melanoma cells; higher = more viable cells
# Conditions in all cases: library dose: standard library concentration; 72 h
# A101D = test system: A101D
# A2058 = test system: A2058
# A375 = test system: A375
# 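Note: cells treated in 1,536-well plates, then fixed and DAPI-stained, with nuclei counted from automated high-throughput microscope images.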
structure (smiles),measurement,setting,value
"C[C@]1(O)C[C@@H](c2nc(-c3ccc4ccc(-c5ccccc5)nc4c3)c3c(N)nccn32)C1 + NC1(c2ccc(-c3nc4ccn5c(=O)[nH]nc5c4cc3-c3ccccc3)cc2)CCC1 [MK2206] (first compound 2 µM, partner dose 2 µM)",cell count,A101D,69.3%
same,cell count,A2058,71.7%
same,cell count,A375,92%
"CCN(CC)CCNC(=O)c1c(C)[nH]c(/C=C2\C(=O)Nc3ccc(F)cc32)c1C [sunitinib] + Cc1cc(Nc2cc(N3CCN(C)CC3)nc(/C=C/c3ccccc3)n2)n[nH]1 [ENMD2076] (first compound 2 µM, partner dose 0.2 µM)",cell count,A101D,71.7%
same,cell count,A2058,65.1%
same,cell count,A375,97.8%
"CCN(CC)CCNC(=O)c1c(C)[nH]c(/C=C2\C(=O)Nc3ccc(F)cc32)c1C [sunitinib] + CCCS(=O)(=O)Nc1ccc(F)c(C(=O)c2c[nH]c3ncc(Cl)cc23)c1F [PLX4720] (first compound 2 µM, partner dose 0.4 µM)",cell count,A101D,53.9%
same,cell count,A2058,78.9%
same,cell count,A375,74.6%
"COc1cc([C@@H]2c3cc4c(cc3[C@@H](O[C@@H]3O[C@@H]5CO[C@@H](C)O[C@H]5[C@H](O)[C@H]3O)[C@H]3COC(=O)[C@H]23)OCO4)cc(OC)c1O [etoposide] + COc1cc(Nc2ncc(F)c(Nc3ccc4c(n3)NC(=O)C(C)(C)O4)n2)cc(OC)c1OC [Tamatinib] (first compound 0.1 µM, partner dose 2 µM)",cell count,A101D,52.5%
same,cell count,A2058,67.7%
same,cell count,A375,85.1%
"Cn1cnc2c(F)c(Nc3ccc(Br)cc3Cl)c(C(=O)NOCCO)cc21 [selumetinib] + CN(c1ncccc1CNc1nc(Nc2ccc3c(c2)CC(=O)N3)ncc1C(F)(F)F)S(C)(=O)=O [PF562271] (first compound 0.075 µM, partner dose 0.4 µM)",cell count,A101D,79.1%
same,cell count,A2058,81.5%
same,cell count,A375,70.5%
"C[C@]1(O)C[C@@H](c2nc(-c3ccc4ccc(-c5ccccc5)nc4c3)c3c(N)nccn32)C1 + CN1CCN(c2ccc3nc(-c4c(N)c5c(F)cccc5[nH]c4=O)[nH]c3c2)CC1 [Dovitinib] (first compound 2 µM, partner dose 0.5 µM)",cell count,A101D,58.6%
same,cell count,A2058,30.7%
same,cell count,A375,56.6%
"C[C@]1(O)C[C@@H](c2nc(-c3ccc4ccc(-c5ccccc5)nc4c3)c3c(N)nccn32)C1 + Cc1cc(N2CCOCC2)cc2[nH]c(-c3c(NC[C@@H](O)c4cccc(Cl)c4)cc[nH]c3=O)nc12 [BMS536924] (first compound 2 µM, partner dose 1 µM)",cell count,A101D,87.9%
same,cell count,A2058,94.4%
same,cell count,A375,101%
"Cn1cnc2c(F)c(Nc3ccc(Br)cc3Cl)c(C(=O)NOCCO)cc21 [selumetinib] + C=CCNC1=C2C[C@@H](C)C[C@H](OC)[C@H](O)[C@@H](C)/C=C(\C)[C@H](OC(N)=O)[C@@H](OC)/C=C\C=C(/C)C(=O)NC(=CC1=O)C2=O [Tanespimycin] (first compound 0.075 µM, partner dose 0.01 µM)",cell count,A101D,58%
same,cell count,A2058,72%
same,cell count,A375,98.7%
"Cn1cnc2c(F)c(Nc3ccc(Br)cc3Cl)c(C(=O)NOCCO)cc21 [selumetinib] + C[C@]1(O)C[C@@H](c2nc(-c3ccc4ccc(-c5ccccc5)nc4c3)c3c(N)nccn32)C1 [OSI906] (first compound 0.075 µM, partner dose 2 µM)",cell count,A101D,74.8%
same,cell count,A2058,92.4%
same,cell count,A375,84.8%
"COc1cc([C@@H]2c3cc4c(cc3[C@@H](O[C@@H]3O[C@@H]5CO[C@@H](C)O[C@H]5[C@H](O)[C@H]3O)[C@H]3COC(=O)[C@H]23)OCO4)cc(OC)c1O [etoposide] + CCCCCCCCc1ccc(CCC(N)(CO)CO)cc1 [fingolimod] (first compound 0.1 µM, partner dose 10 µM)",cell count,A101D,9.96%
same,cell count,A2058,4.81%
same,cell count,A375,76.7%
"COc1cc([C@@H]2c3cc4c(cc3[C@@H](O[C@@H]3O[C@@H]5CO[C@@H](C)O[C@H]5[C@H](O)[C@H]3O)[C@H]3COC(=O)[C@H]23)OCO4)cc(OC)c1O [etoposide] + Cn1cnc2c(F)c(Nc3ccc(Br)cc3Cl)c(C(=O)NOCCO)cc21 [selumetinib] (first compound 0.1 µM, partner dose 0.075 µM)",cell count,A101D,71.7%
same,cell count,A2058,86.8%
same,cell count,A375,83.3%
"COc1cc([C@@H]2c3cc4c(cc3[C@@H](O[C@@H]3O[C@@H]5CO[C@@H](C)O[C@H]5[C@H](O)[C@H]3O)[C@H]3COC(=O)[C@H]23)OCO4)cc(OC)c1O [etoposide] + NCC(=O)Nc1ccc(-n2nc(C(F)(F)F)cc2-c2ccc3c(ccc4ccccc43)c2)cc1 [OSU03012] (first compound 0.1 µM, partner dose 5 µM)",cell count,A101D,87.5%
same,cell count,A2058,96.3%
same,cell count,A375,62.2%
